“And” between values parts separate entries of the source, which are not always exact repeats. Equal values may be shown once. About 50,000 (12%) of roughly 420,000 compounds were called active. This list was built around the results that the source calls inconclusive (neither active nor inactive); the mix of calls is not that of the screen. Calls follow the shape of the dose curve; as a rule, active = well fitted inhibition curve with a large enough effect; inconclusive = small, poorly fitted or top-dose-only effect; inactive = flat fitted curve, though single readings scatter. Potencies of inconclusive entries are doubtful fits and often do not repeat. Some structures have more than one record in an assay (separate samples or runs), and their calls can disagree.
Assay: qHTS for Inhibitors of human tyrosyl-DNA phosphodiesterase 1 (TDP1): qHTS in cells in presence of CPT; also: nearly all actives have a fitted effect of over 55% in size
Settings: chicken DT40 Tdp1-/-;hTDP1 cells + 20 nM CPT, ATP luminescence, 48 h; activity change, negative = growth inhibition: at 46.2 µM (top of the series)
In short: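 Chicken DT40 Tdp1-/- cells complemented with human TDP1, 400 cells/well, exposed to compounds plus 20 nM camptothecin for at least 48 h at 37 C; viability read as ATP content by CellTiter-Glo luminescence.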
For `COCCNC(=O)CSc1nc(-c2ccccc2)c(-c2ccccc2)o1`, the Potency was active: 11.6 µM.
In the case of `Cc1cc(-c2cc(-c3ccc(Cl)cc3)nc(N)c2C#N)co1`, the Potency is reported as active: 8.2 µM.
For `CN(C(=O)c1cc2c(=O)n3ccccc3nc2n1C)C1CCCCC1`, the activity change, negative = growth inhibition was inconclusive: -32.4% [inhibitor].
In the case of `CCCN1CCC(=O)N([C@H](CSc2ccc(Br)cc2)Cc2ccccc2)CC1`, the Potency is reported as inconclusive: 23.1 µM [inhibitor, single point].
With `CCOC(=O)Nc1ccc2c(c1)Cc1cc([N+](=O)[O-])ccc1-2` the Potency was inconclusive: 18.4 µM [inhibitor, single point].
For `Cc1ccc(S(=O)(=O)N2CCc3cc4c(cc3C2C)OCCCO4)cc1` (stereo unspecified), the Potency was active: 18.4 µM.
For `CC1=C(C(=O)Nc2cccc(C)c2C)C(c2cccs2)NC(=S)N1` (stereo unspecified), the Potency was inconclusive: 18.4 µM [inhibitor, single point].
With `Cc1ccc2[nH]cc(CCNC(=O)Nc3ccccc3)c2c1` the Potency was inconclusive: 22.4 µM [inhibitor, single point].
With `COc1ccc(NS(=O)(=O)c2cccc(C(=O)NN=C(C)c3ccco3)c2)cc1` the Potency was “inactive”.
In the case of `CCc1cccc(NC(=O)CCS(=O)(=O)c2ccc(C)cc2)c1`, the Potency is reported as inconclusive: 29.1 µM [inhibitor, single point].
In the case of `CC(C)N1CC2(CC(c3ccccc3F)=NO2)CN1C(=O)c1ccc(C(C)(C)C)cc1` (stereo unspecified), the Potency is reported as active: 23.1 µM.
For `CCc1ccc(C2c3c(n[nH]c3C)C(=O)N2c2ccc(C)cc2)cc1` (stereo unspecified), the Potency was inconclusive: 11.6 µM [inhibitor, partial curve].
In the case of `NS(=O)(=O)c1ccc(CCNC(=O)COC(=O)/C=C/c2ccc(Cl)cc2)cc1`, the Potency is reported as inconclusive: 23.1 µM [inhibitor, single point].
For `COc1cc(CNn2c(C)n[nH]c2=S)cc(Cl)c1OCC(=O)NC(C)(C)C`, the Potency was inconclusive: 29.1 µM [inhibitor, single point].
For `Cc1cccc(C)c1NC(=O)CN1CCN(C(=O)CNC(=O)Cc2cccc3ccccc23)CC1`, the Potency was inconclusive: 20.6 µM [inhibitor, single point].
For `Cc1ccc(S(=O)(=O)n2cc(-c3ccccc3)c3ccccc32)cc1`, the Potency was active: 3.66 µM.
With `O=S(=O)(Cc1ccccc1Cl)NCc1ccccc1` the Potency was “inactive”.
For `COc1ccc(CCNC(=O)CSc2ccc(-c3ccncc3)nn2)cc1`, the Potency was “inactive”.
In the case of `CCOc1ccccc1NC(=O)C1CCN(C(=O)C2CC(=O)N(c3ccc(C)cc3)C2)CC1` (stereo unspecified), the Potency is reported as “inactive”.
For `CC(C)CCNC(=O)CSc1nc2ccsc2c(=O)n1Cc1ccccc1Cl`, the Potency was inconclusive: 23.1 µM [inhibitor, single point].
For `CC(=O)c1cccc(NC(=O)c2ccc(OC3CSC3)cc2)c1`, the Potency was inconclusive: 18.4 µM [inhibitor, single point].
For `COc1ccc(CCN2CCCn3c2nc2c3c(=O)n(C)c(=O)n2C)cc1OC`, the Potency was inconclusive: 29.1 µM [inhibitor, single point].
With `COc1ccc(NC(=O)C(Cc2ccccc2)n2cccc2)c(OC)c1` (stereo unspecified) the Potency was “inactive and active: 23.1 µM”.
With `CC(=O)C[C@H](O)CC(=O)[C@@H]1OC(=O)CCCCCCCCc2ccccc21` the Potency was inconclusive: 23.1 µM [inhibitor, single point].
In the case of `Cc1c(C#N)c(NC(=O)CCl)n(Cc2ccc(F)cc2)c1C`, the Potency is reported as active: 5.17 µM.
In the case of `Cc1cnc(NC(=O)CSc2ccc(Cl)cc2)s1`, the Potency is reported as inconclusive: 18.4 µM [inhibitor, single point].
For `CCc1nc2ccc(C(=O)Nc3cccc(OC)c3)cn2c1N(C)CCCc1ccccc1`, the Potency was inconclusive: 29.1 µM [inhibitor, single point].
In the case of `NC(=O)c1ccc2nc(NC(=O)c3ccc(N)cc3)sc2c1`, the Potency is reported as inconclusive: 29.1 µM [inhibitor, single point].
With `CCCN1CCN(C(=S)Nc2ccc([N+](=O)[O-])cc2)CC1` the Potency was inconclusive: 18.4 µM [inhibitor, single point].
For `COc1ccc(C)cc1NC(=O)CN(C)C1CCCCC1`, the Potency was inconclusive: 29.1 µM [inhibitor, single point].
For `COc1cc(-c2cc3nc(NCCc4ccncc4)ccn3n2)cc(OC)c1OC`, the Potency was active: 18.4 µM.
For `CCCCNC(=O)C1(C)CCCCN1C(=O)c1oc2ccccc2c1C` (stereo unspecified), the Potency was active: 14.6 µM.
With `COCCn1nnnc1C(c1cccc(C#N)c1)N1CCCCCC1` (stereo unspecified) the Potency was “inactive”.
For `CC(=O)Nc1ccc(NC(=O)COc2ncnc3ccccc23)cc1`, the Potency was “inactive”.
With `COc1ccc(N2C(=O)CC(N3CCC(O)(c4ccc(Br)cc4)CC3)C2=O)cc1` (stereo unspecified) the Potency was active: 18.4 µM.
In the case of `CCOC(=O)CSc1nc(C)c(Oc2ccc(Cl)cc2Cl)c(=O)[nH]1`, the Potency is reported as inconclusive: 6.51 µM [inhibitor, single point].
With `Cc1ccc(Cc2c(-c3ccc(C#N)cc3)nc3c4ccccc4ccn23)cc1` the Potency was inconclusive: 18.4 µM [inhibitor, single point].
With `CCCN(CC(=O)Nc1ccccc1C)C(=O)/C=C/c1ccc(S(=O)(=O)N2CCCCCC2)cc1` the Potency was inconclusive: 29.1 µM [inhibitor, single point].
With `Cc1ccc(NC(=O)COc2ccc(Br)cc2CO)cc1S(=O)(=O)N1CCOCC1` the Potency was inconclusive: 25.9 µM [inhibitor, single point].
In the case of `CCOc1ccc(CCNC(=O)COC(=O)CCS(=O)(=O)c2ccc(C)cc2)cc1OCC`, the Potency is reported as “inactive”.
For `CSc1ccc(S(=O)(=O)NCC(=O)OCC(=O)N(C)C2CCCCC2)cc1[N+](=O)[O-]`, the Potency was “inactive”.
For `Cc1ccc(-c2nnc(Nc3ccc4c(c3)nc(C)n4C)c3ccccc23)cc1`, the Potency was inconclusive: 18.4 µM [inhibitor, single point].
For `O=C(NCC1COc2ccccc2O1)C1CCCN(S(=O)(=O)c2cccc3cccnc23)C1` (stereo unspecified), the Potency was active: 20.6 µM.
For `C=CCOC(=O)C1=C(C)Nc2nc3ccccc3n2C1c1ccncc1` (stereo unspecified), the Potency was inconclusive: 9.2 µM [inhibitor, partial curve].
In the case of `COc1cc(OC)c(N(C)S(=O)(=O)c2cccc(C(=O)Nc3nc(C)cs3)c2)cc1Cl`, the Potency is reported as active: 16.4 µM.
With `CCCOC(=O)/C(C(N)=NCc1ccccc1)=C(\O)OCCC` the activity change, negative = growth inhibition was inconclusive: -31% [inhibitor].
For `COc1ccc(NC(=O)NC2CCCc3ccccc32)c(OC)c1` (stereo unspecified), the Potency was inconclusive: 10.3 µM [inhibitor, partial curve, poor fit].
For `COc1ccccc1/C=C/C(=O)NCC(=O)n1nc(C)cc1C`, the Potency was “inactive”.
For `COc1ccc(Nc2nnc(-c3ccc(C)c(S(=O)(=O)N4CCOCC4)c3)c3ccccc23)cc1`, the Potency was active: 14.6 µM.
For `COc1ccccc1-c1c(C(F)(F)F)oc2cc(OCC(=O)Nc3ccccc3C(F)(F)F)ccc2c1=O`, the Potency was inconclusive: 29.1 µM [inhibitor, single point].
With `CC(=O)c1cccc(OCCCOc2cccc3cccnc23)c1` the Potency was inconclusive: 23.1 µM [inhibitor, single point].
In the case of `Cc1cccc(NC(=O)c2c(Br)sc3c2CCCC3)c1`, the Potency is reported as inconclusive: 23.1 µM [inhibitor, single point].
In the case of `O=C(/C=C\Nc1cccc(F)c1)c1cccs1`, the Potency is reported as “inactive”.
For `O=C(COc1ccccc1F)Nc1nnc(S(=O)(=O)N2CCCCCC2)s1`, the Potency was “inactive”.
With `CC(=O)c1cccc(Nc2nc3ccccc3n3cnnc23)c1` the Potency was inconclusive: 29.1 µM [inhibitor, single point].
In the case of `CCCCNC(=O)CSc1nc2n[nH]c(C)c2c(=N)n1-c1ccccc1CC`, the Potency is reported as active: 14.6 µM.
With `CCNC(=O)C1(C)CCCN(Cc2cc(-c3ccccc3)n(C)n2)C1` (stereo unspecified) the Potency was inconclusive: 20.6 µM [inhibitor, single point].
In the case of `CC1(C(=O)Nc2ccc(Cl)c(Cl)c2)CCN1CCc1ccccc1` (stereo unspecified), the Potency is reported as inconclusive: 29.1 µM [inhibitor, single point].
For `CCOc1cc(C2c3c(oc4ccc(F)cc4c3=O)C(=O)N2Cc2ccc(C)cc2)ccc1O` (stereo unspecified), the Potency was active: 1.3 µM.
With `COc1ccc(NS(=O)(=O)c2cccc(C(=O)NN=Cc3ccc(OC)cc3OC)c2)cc1` the Potency was “inactive”.
For `CCNc1nc(NCC)nc(N/N=C(\C)c2ccc(OC)cc2)n1`, the Potency was inconclusive: 25.9 µM [inhibitor, single point].
With `O=C(O)c1cnc2ccccc2n1` the Potency was inconclusive: 29.1 µM [inhibitor, partial curve, poor fit].
For `OC(CCN1CCCCC1)(c1ccccc1)c1ccccc1`, the Potency was inconclusive: 18.4 µM [inhibitor, single point] and inconclusive: 6.51 µM [inhibitor, full curve, poor fit].
For `COc1ccc(C)cc1NC(=O)C(OC(=O)c1cnccn1)c1ccccc1` (stereo unspecified), the Potency was “inactive”.
For `COc1ccc(OCC(O)CN2CCN(c3ccccc3)CC2)cc1` (stereo unspecified), the Potency was “inactive”.
For `OC(CNC1CCCCC1)COCCOc1ccc(Br)cc1` (stereo unspecified), the Potency was active: 13 µM.
With `Cc1c(Cc2ccccc2)c(NCCCO)n2c(nc3ccccc32)c1C#N` the Potency was active: 20.6 µM.
In the case of `CCOC(=O)c1c(C)oc2nc(C)nc(NCCCN3CCN(c4cccc(C)c4)C(C)C3)c12` (stereo unspecified), the Potency is reported as inconclusive: 23.1 µM [inhibitor, single point].
For `Cc1sc2nc(C)n(/N=C/c3ccc(O)cc3)c(=O)c2c1C`, the Potency was inconclusive: 6.51 µM [inhibitor, single point].
With `CCC1CN(C(=O)Nc2cccc3c2CCCC3)c2cc(C)ccc2O1` (stereo unspecified) the Potency was inconclusive: 29.1 µM [inhibitor, single point].
For `CC1(C(=O)Nc2cccc(C(F)(F)F)c2)Cc2c(-c3ccc4c(c3)OCO4)ccnc2O1` (stereo unspecified), the Potency was inconclusive: 29.1 µM [inhibitor, single point].

Source: PubChem BioAssay AID686979 (National Center for Advancing Translational Sciences (NCATS), 2013)
% is scaled to controls: 0 for no effect and ±100 for the full control effect; potency is read from the fitted curve at half-maximal effect; tags tell the direction and shape of the fitted curve.
